# Reference: the supplement of paper PMC3334620
# Whole data set: some 33,000 sequences, median “E-score (-0.5 to 0.5)” near -0.016, cut for the highest 2% near 0.32. The list shows a part of the results.
# Target: T1, Stp1 (UniProt B3LFK1)
# T1 sequence: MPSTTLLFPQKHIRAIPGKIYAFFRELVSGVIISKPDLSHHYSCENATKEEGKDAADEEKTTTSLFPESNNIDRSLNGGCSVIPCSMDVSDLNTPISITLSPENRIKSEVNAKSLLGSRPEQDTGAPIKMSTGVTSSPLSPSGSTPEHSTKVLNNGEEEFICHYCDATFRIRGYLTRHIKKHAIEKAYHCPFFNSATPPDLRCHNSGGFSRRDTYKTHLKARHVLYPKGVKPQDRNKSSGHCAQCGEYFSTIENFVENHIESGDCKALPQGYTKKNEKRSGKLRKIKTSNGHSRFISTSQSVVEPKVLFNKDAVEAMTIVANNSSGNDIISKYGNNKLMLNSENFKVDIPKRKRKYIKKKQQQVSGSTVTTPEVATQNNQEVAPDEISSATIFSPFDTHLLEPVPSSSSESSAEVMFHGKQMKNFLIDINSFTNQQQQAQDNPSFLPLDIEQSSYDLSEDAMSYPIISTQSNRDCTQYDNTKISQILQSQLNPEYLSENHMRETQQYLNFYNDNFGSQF
# Assay: PBM E-score (8-mer binding enrichment) (E-score (-0.5 to 0.5)); higher = stronger / more preferred TF binding; most listed sequences are background and not binding sites
# Conditions: protein concentration: 200 nM; construct: GST-full length
# Outline: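 Universal all-10-mer Agilent arrays, fresh or stripped once, were converted to double-stranded form by primer extension. GST-tagged yeast transcription factors from PURExpress in vitro transcription/translation, full-length or DNA-binding domain only, were applied at about 100-200 nM and detected with fluorescent anti-GST. After masliner normalisation, the Universal PBM Analysis Suite scored each ungapped eight-base word together with its reverse complement by E-score.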
row,Sequence,PBM E-score
1,AGCACGGC,0.451
2,ACAGGAGT,-0.0537
3,AATCTTAA,-0.0736
4,CGGCGAAA,0.354
5,CGGGCTGA,-0.142
6,AGACTTAA,-0.12
7,AATGGTGA,-0.00504
8,GCCATAGA,0.132
9,AGAAATAA,0.0754
10,ACATGCAT,-0.0665
11,CCCACCGG,-0.169
12,GTGGATGA,-0.104
13,GTGGGCTA,-0.161
14,CATGTCTA,-0.0239
15,AGAAGTCG,-0.0878
16,AAACAATG,-0.0267
17,AATAAATG,0.219
18,CGCCTGTA,-0.0697
19,ATCCGGAG,-0.0578
20,AAGTATCT,-0.0631
21,GCGCAGAA,0.216
22,GATGCTTA,-0.0459
23,AGTCAACC,-0.218
24,GGCATTAA,0.319
25,GGCTGCAC,0.0244

row,Sequence,PBM E-score
1,AAACCTTG,-0.177
2,TCCATCAA,0.0673
3,GGAGGTGA,-0.0209
4,ACTGGTCC,-0.321
5,CGTAGGAG,-0.127
6,CACGTCAG,-0.0897
7,ATAACTAA,0.123
8,ATGTTTAC,-0.00144
9,AGCCGGGC,-0.0588
10,GGGATATA,0.0195
11,GAACAGAC,-0.0627
12,GTTGGGAA,-0.0455
13,ACATTCGA,-0.0273
14,ATAATAAT,0.16
15,AGCAGGAT,-0.201
16,ACCCCCGC,-0.125
17,CGCTCAAC,-0.0888
18,AGCCCCGA,-0.315
19,TAGGCCAA,-0.086
20,ATCATAAG,0.0136
21,GAGCAGGC,-0.0781
22,GGTATAGA,-0.105
23,CACGCGCC,0.291
24,AAAGTATT,-0.0549
25,CGGTGTAA,-0.068

row,Sequence,PBM E-score
1,GTGGGTAA,-0.113
2,GACAGGCA,-0.0978
3,ACTGAAGT,-0.0141
4,ATTCGATC,0.0813
5,CTGGGCCA,-0.31
6,ATTATAAC,-0.0695
7,ACTTGTTA,0.106
8,ACCCGCAA,-0.214
9,CGAACCTA,-0.0355
10,CTCACGCA,0.172
11,CCTGGATC,-0.276
12,ATCTTCTC,-0.101
13,CTGCGCAG,-0.185
14,CCATGCCC,-0.0806
15,GAACAATA,0.184
16,CACAGCGG,0.0299
17,AATAGGGA,-0.271
18,GCTGGCAA,0.0771
19,ATTAGTGC,0.258
20,TCAGGCGA,-0.045
21,CAGCACAG,-0.00618
22,AGATCCGC,0.077
23,ATGCCAAC,0.134
24,CAACGATA,-0.0129
25,AAATCTAG,-0.00769

row,Sequence,PBM E-score
1,GCGACTGA,-0.227
2,GTGTTAGA,-0.0128
3,AGGAGTCG,-0.355
4,GTTCGGGA,-0.182
5,CCGAGAGG,-0.133
6,GAGCAAGA,0.0127
7,CAGCCTCG,-0.0153
8,GGTGTTTA,-0.0465
9,CCGTCGCG,0.189
10,AGGAAGAT,-0.0861
11,GAGAAGAC,-0.0278
12,AAATTTGT,0.0523
13,ATTCCGTG,0.127
14,ACTATCTA,0.0698
15,CAGAAGAG,-0.118
16,CGTACAAA,0.187
17,CACGCCAG,-0.0901
18,AGACTAAA,0.0832
19,CTTTACCA,-0.213
20,CCGTGCCG,0.47
21,ATCCGAGC,-0.18
22,CCACGAAG,-0.117
23,GTGAGATA,0.055
24,AGAATGTG,-0.127
25,CCTGCCCG,-0.0213

row,Sequence,PBM E-score
1,ATGGTACC,-0.108
2,GGAGAGAA,-0.0643
3,AAACAGGC,-0.0678
4,AAGAACAA,0.227
5,ACTGTCAT,-0.0811
6,AGATTTAC,0.0354
7,GAACCTGC,-0.18
8,AAGCCGTC,0.296
9,ATGGAAGG,0.0495
10,GATCCGTA,0.12
11,CCTTGAGC,0.0884
12,CACAACGG,0.108
13,CATGGCCG,0.21
14,CTTCGATC,-0.0129
15,TGCACACA,-0.18
16,CCCTACCG,-0.0543
17,CATACTGC,0.0714
18,CAGGCGGG,-0.168
19,TGGTAGAA,0.0217
20,TAAAAGAA,0.162
21,ATCTACGC,0.15
22,CAAGAATA,0.194
23,ATGACTCA,0.00451
24,CTTCGAAA,0.138
25,AAGTGAGG,-0.112

row,Sequence,PBM E-score
1,ATGAAGAG,0.183
2,GTTCAAAC,0.323
3,AGTGGCAC,0.209
4,CGGTAACC,-0.0393
5,AACAGTCA,-0.139
6,ACAGTCAT,-0.112
7,ACCGCTCC,-0.223
8,ACAAGCTA,-0.122
9,CGACGGCC,0.0289
10,ACGAGCCG,0.336
11,ATTACCCA,0.0334
12,CGATTTAC,0.0834
13,AATGTTTA,0.0994
14,TCTTATCA,0.208
15,GATCGCCC,-0.113
16,ACTAGGTC,-0.125
17,ACGTCAAT,-0.117
18,AAAATTTC,0.043
19,CAACGGTG,-0.212
20,ATGCAGCA,-0.108
21,CACCGCGA,-0.0402
22,AGGAATTC,-0.0587
23,AAAACGCT,-0.076
24,CAACTATA,-0.0288
25,ACCGTCCA,-0.0612

row,Sequence,PBM E-score
1,ACGGGGTG,0.155
2,AGATTGGG,-0.127
3,CCTTCACC,-0.13
4,TGAATTAA,0.186
5,CTTCAACA,-0.028
6,GATGAAAA,0.164
7,AGGGCGCG,0.369
8,AGCAATTC,9e-05
9,AAATGCTC,0.0723
10,CTTCTTAA,0.165
11,CCTCAGTC,-0.229
12,AAAACACA,0.148
13,AAAAAAAG,0.103
14,TGGGCTAA,-0.186
15,AACGGTCG,0.0305
16,CCTCGGCG,0.251
17,AGGAGCCC,-0.212
18,AAGTCGAC,-0.0585
19,ATTCCATA,0.134
20,CCACCATC,-0.263
21,AAACTCAG,0.073
22,CGCCCGAA,-0.174
